Data published in a compilation of properties of binary mixtures (doi:10.1021/je050444g).
Some of these densities may be calculated back from excess volumes.

Test: xn = mol fraction of the nth substance listed
Details: 308.15 K, 100 kPa

CC1COC(=O)O1 (stereo unspecified) + CS(C)=O
Details	mass density [kg/m3]
x2 = 0.0506	1184
x2 = 0.1139	1177.8
x2 = 0.2014	1168.9
x2 = 0.2976	1159.1
x2 = 0.4759	1140.6
x2 = 0.5376	1134.1
x2 = 0.6343	1123.9
x2 = 0.8643	1099.6
x2 = 0.9376	1091.8

CCOC(=O)OCC + CS(C)=O
Details	mass density [kg/m3]
x2 = 0.0902	965.1
x2 = 0.2655	980.8
x2 = 0.3678	991
x2 = 0.468	1001.9
x2 = 0.5579	1012.7
x2 = 0.6013	1018.3
x2 = 0.6456	1024.2
x2 = 0.7167	1034.4
x2 = 0.8439	1054.9
x2 = 0.9239	1069.7

CS(C)=O + COC(=O)OC
Details	mass density [kg/m3]
x1 = 0.2791	1060.8
x1 = 0.371	1064
x1 = 0.5007	1068.2
x1 = 0.5479	1069.8
x1 = 0.626	1072.3
x1 = 0.8572	1080
x1 = 0.9283	1082.6
